Test results as given in PMC4336329 (PLoS ONE, 2015).
About 14,000 (4.5%) of roughly 310,000 compounds showed an effect of 50% or more. Effects have a minus sign here. The list shows a part of the results.

Biological target: human ether-à-go-go-related gene (hERG) potassium channel (human, UniProt Q12809)
Assay: primary screen, population patch clamp on CHO cells stably expressing hERG
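Note: peak tail current of the secondary pulse compared with the same well before compound.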

Sequence of human ether-à-go-go-related gene (hERG) potassium channel (Q12809 whole entry, looked up): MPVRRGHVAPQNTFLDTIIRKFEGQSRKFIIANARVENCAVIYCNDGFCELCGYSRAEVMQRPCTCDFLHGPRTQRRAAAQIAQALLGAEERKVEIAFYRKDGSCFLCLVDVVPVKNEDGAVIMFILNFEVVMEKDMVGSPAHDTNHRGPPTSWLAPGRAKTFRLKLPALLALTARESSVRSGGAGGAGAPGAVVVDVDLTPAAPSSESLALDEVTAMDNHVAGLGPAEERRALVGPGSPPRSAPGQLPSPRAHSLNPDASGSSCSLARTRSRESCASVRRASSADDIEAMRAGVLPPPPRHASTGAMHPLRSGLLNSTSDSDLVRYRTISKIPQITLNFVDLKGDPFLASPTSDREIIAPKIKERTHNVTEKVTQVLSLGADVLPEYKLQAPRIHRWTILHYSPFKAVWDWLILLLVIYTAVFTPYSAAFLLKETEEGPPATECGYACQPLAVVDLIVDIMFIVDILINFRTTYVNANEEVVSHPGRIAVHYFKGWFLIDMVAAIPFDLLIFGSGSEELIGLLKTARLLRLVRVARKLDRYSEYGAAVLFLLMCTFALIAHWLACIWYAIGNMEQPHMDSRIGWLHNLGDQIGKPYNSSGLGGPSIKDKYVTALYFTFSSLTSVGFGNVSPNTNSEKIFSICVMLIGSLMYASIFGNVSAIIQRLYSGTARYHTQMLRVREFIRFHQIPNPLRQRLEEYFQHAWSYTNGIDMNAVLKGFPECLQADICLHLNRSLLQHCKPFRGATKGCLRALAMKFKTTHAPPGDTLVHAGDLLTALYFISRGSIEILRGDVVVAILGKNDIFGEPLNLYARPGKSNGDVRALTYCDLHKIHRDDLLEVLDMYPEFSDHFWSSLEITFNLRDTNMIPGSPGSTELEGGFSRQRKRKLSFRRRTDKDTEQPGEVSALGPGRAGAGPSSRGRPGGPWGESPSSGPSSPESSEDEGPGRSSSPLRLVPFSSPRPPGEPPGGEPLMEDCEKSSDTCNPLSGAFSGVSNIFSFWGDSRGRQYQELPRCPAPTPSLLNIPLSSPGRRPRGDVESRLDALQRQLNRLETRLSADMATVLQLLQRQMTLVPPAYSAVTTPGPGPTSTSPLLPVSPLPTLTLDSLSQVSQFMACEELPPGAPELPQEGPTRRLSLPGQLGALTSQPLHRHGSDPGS

| Compound | hERG current change (%, negative = inhibition) at 10uM |
| --- | --- |
| CN(C(=O)COc1ncnc2sccc12)c1ccccc1 | 12.8% |
| CCCSc1nc(C)cc(=O)[nH]1 | 15.9% |
| O=c1[nH]nc(-c2ccccc2)c2ccccc12 | -5.57% |
| O=C(NNc1ccccc1)/C(=C\c1cccnc1)NC(=O)c1ccccc1 | -6.49% |
| O=C(Nc1cccnc1)c1cc2cc(Br)ccc2o1 | 8.93% |
| Cc1ccc(CCNC(=O)c2cc(S(=O)(=O)N3CCOCC3)cn2C)cc1 | -14.6% |
| Cc1ccc(/C=N/NC(=O)c2nnn(-c3nonc3N)c2CN(C)c2ccccc2)s1 | 1.15% |
| O=C(COC(=O)/C=C/c1ccccc1Cl)NCc1ccco1 | 60.5% |
| Cc1cc(O)c(C(=O)Cc2csc(C)n2)c(O)c1 | -6.54% |
| O=C(COC(=O)/C=C/c1ccc(Cl)cc1Cl)NCCC1=CCCCC1 | -11.8% |
| COCCCNC(=O)c1cc2c(=O)n(C)c3ccccc3c2n1C | -7.05% |
| COc1ccc2c(c1)C(=O)N1[C@H]3c4cc(OC)ccc4OC[C@@H]3[C@H](c3ccccc3)[C@]1(C)C(=O)N2 | 9.06% |
| CN(C)S(=O)(=O)c1ccc(C(=O)Nc2ccc(F)cc2F)cc1 | -6.6% |
| O=C(O)C1CC=CCC1C(=O)Nc1ccccc1C(=O)N1CCN(c2ccc(F)cc2)CC1 (centres unmarked) | 14.6% |
| CCNC(=O)CC1C(=O)N(CC)C(=S)N1NC(=O)c1ccc(Cl)cc1 (centres unmarked) | -10.6% |
| CCC(=O)N1CCc2cc(Br)cc(S(=O)(=O)N3CCC(C(=O)NC(C)C)CC3)c21 | 7.93% |
| CCOC(=O)c1c(C)c(C(=O)N2CCN(C(=O)c3ccco3)CC2)c(C)n1C | -15.8% |
| CCCCC(=O)Nc1cccc(C(=O)Nc2ccccc2C(=O)O)c1 | 18.2% |
| O=C1CCc2cc(S(=O)(=O)N3CCN(c4ccc(F)cc4)CC3)cc3c2N1CC3 | -1.23% |
| O=C(O)Cc1ccc(NC(=O)c2ccc3c(c2)C(=O)N(CC2CCCO2)C3=O)cc1 (centres unmarked) | 12.6% |
| COc1ccccc1OCCNC(=O)C1CC(=O)N(c2cccc(SC)c2)C1 (centres unmarked) | -10.8% |
| O=C1c2ccccc2C(=O)c2c1ccc(C(=O)N1CCCCC1)c2NCCO | -34.7% |

| Compound | hERG current change (%, negative = inhibition) at 10uM |
| --- | --- |
| Cc1ccc(CNS(=O)(=O)c2c(C)nc3scc(C)n3c2=O)cc1 | 9.09% |
| COc1cc2c(cc1OC)CN(c1ccc([N+](=O)[O-])cc1C#N)CC2 | -50% |
| COc1ccc(C(=O)c2ccc(OC)c(N)c2)cc1N | -9.09% |
| S=C1CCC(c2ccc(Cl)cc2)=NN1c1ccccc1 | 4.79% |
| COc1ccc(OC)c(N2C(=O)CC(Cc3ccc(Cl)cc3)C2=O)c1 (centres unmarked) | -15.8% |
| CC(Cc1ccccc1Sc1ccc(O)cc1)N(C)C.CCO.Cl (centres unmarked) | -69.5% |
| CCC(=O)NC(c1ccc(OC)cc1)c1c(O)ccc2ccccc12 (centres unmarked) | 3.82% |
| O=C(NC(=S)Nc1cccc2cccnc12)c1cccs1 | -25.8% |
| O=c1c2cc(NC(=S)NCCN3CCCCCC3)ccc2nc2n1CCCCC2 | -1.38% |
| S=c1[nH]ncn1/N=C/c1ccc(N2CCOCC2)cc1 | 14.9% |
| Cc1ccc(CNC(=O)CSc2ccc(-c3ccco3)nn2)cc1 | -16.1% |
| Cc1ccc(C)c2[nH]c(=O)c(CCNC(=O)c3ccc(Br)o3)cc12 | 0.143% |
| Cc1[nH]c2c(Cl)cccc2c(=O)c1CN1CCCC1 | -10.6% |
| CCOc1cccc2c1OC1(CCCCC1)N1N=C(c3cccnc3)CC21 (centres unmarked) | -0.544% |
| CCCCNC(=O)C1CC(c2ccccc2[N+](=O)[O-])=NO1 (centres unmarked) | 12.8% |
| CC(OC(=O)c1cc(S(=O)(=O)N(C)c2ccccc2)ccc1Cl)C(=O)Nc1ccc2c(c1)OCCO2 (centres unmarked) | 10.8% |
| Cc1ccc2nc(SC(C)C(=O)NC3CCCc4ccccc43)[nH]c2c1 (centres unmarked) | 3.25% |
| CC(NC(=O)Cc1cccs1)C(c1cccs1)N1CCN(c2ccccc2)CC1 (centres unmarked) | -2.03% |
| CCN(CC)c1ccc(NC(=O)c2cnccn2)cc1S(=O)(=O)Nc1ccc(OC)cc1 | -0.144% |
| CC1CCCC(NC(=O)C2CCN(S(=O)(=O)N3CCCCCC3)CC2)C1C (centres unmarked) | -0.55% |
| CN(CC(=O)Nc1cccc(F)c1)C(=O)CSc1nc2ccccc2s1 | -8.83% |
| OCC[C@H]1C[C@H](O)[C@@H](O)[C@@]2(OCCCc3ccccc32)O1 | -8.97% |

| Compound | hERG current change (%, negative = inhibition) at 10uM |
| --- | --- |
| Cn1ccnc1SCC(=O)Nc1cccc(S(=O)(=O)N2CCCCC2)c1 | 3.74% |
| COc1cc(/C=C(\NC(C)=O)C(=O)NC(C)(C)C)ccc1OC(C)=O | 21.1% |
| CCOC(=O)N1CCN(S(=O)(=O)c2ccc(C(=O)N(CCCN(C)C)c3nc4cc(OC)ccc4s3)cc2)CC1.Cl | -56.2% |
| C/C(CC(=O)N(C(C)C)C(C)C)=N\NC(=O)COc1ccc(Br)cc1Br | -51.3% |
| Cc1onc(C(=O)Nc2ccc3c(c2)OCO3)c1[N+](=O)[O-] | 12.5% |
| O=C(N=c1ccn(-c2nc3ccccc3nc2NS(=O)(=O)c2ccccc2)cc1)c1cccs1 | 31.2% |
| CCOCC(=O)Nc1nnc(COC)s1 | 7.18% |
| Cc1cc(OCC(=O)Nc2ccccc2C(N)=O)c2c(C)cc(=O)oc2c1 | -8.01% |
| CCc1ccc(-c2nc(CN3CCCC(C(=O)O)C3)c(C)o2)cc1 (centres unmarked) | 14.2% |
| Cc1ccc(S(=O)(=O)N[C@H](C(=O)N2CCC(C(=O)N[C@@H](CC(=O)O)C(=O)O)CC2)C(C)C)cc1 | 24.9% |
| COc1ccc(/C=C2\SC(=S)N(CCC(=O)Nc3ccc(C(=O)O)cc3)C2=O)cc1 | 17.2% |
| C=CCOc1ccc(CN(C)CC(=O)Nc2ccccc2[N+](=O)[O-])cc1.O=C(O)C(=O)O | -8.31% |
| O=C(NCC1CCCO1)c1cc(S(=O)(=O)N2CCCCC2)ccc1Cl (centres unmarked) | -10% |
| O=C(c1ccc([N+](=O)[O-])cc1)N1CCSC1c1ccc(Br)cc1 (centres unmarked) | -64.2% |
| O=C(CSc1nc(O)cc(=O)n1-c1ccccc1)NC1CCCCC1 | 9.08% |
| O=C(CCc1ccc(S(=O)(=O)NCCc2ccccc2)cc1)N1CCN(Cc2ccc3c(c2)OCO3)CC1 | -48.5% |
| Cc1cccc(N2CCN(Cc3cc(=O)n4ccsc4n3)CC2)c1C | -37.1% |
| O=C(Nc1ncccn1)c1cccc(Cl)c1 | 2.21% |
| CC1CCCN(C2(O)C(=O)Nc3ccc(Cl)cc32)C1 (centres unmarked) | 2.56% |
| Nc1c(C(=O)NCc2ccco2)nnn1CC(=O)Nc1ccccc1 | 15.9% |
| C=CCOn1c(=O)c(=O)n(OCc2ccccc2)c2ccccc21 | -41.7% |
| CCCn1c2ccccc2c2cnn(CC(=O)NC3CCCCC3C)c(=O)c21 (centres unmarked) | 11.7% |

| Compound | hERG current change (%, negative = inhibition) at 10uM |
| --- | --- |
| O=C(COC(=O)CCNS(=O)(=O)c1ccccc1)NC(=O)c1ccccc1 | -2.52% |
| CCn1cc(C(=O)N2CCN(c3ccc(C(C)=O)cc3)CC2)c2cc(OC)c(OC)cc2c1=O | -44.3% |
| COC(=O)C1=C(C)NC(=S)NC1c1ccc(OC(=O)c2ccco2)cc1 (centres unmarked) | 9.33% |
| CCCCCN(C(=O)CCC(=O)OCC(=O)N1CCCCC1)c1c(N)n(CCCC)c(=O)[nH]c1=O | -3.24% |
| Cc1ccc(S(=O)(=O)N2CCCCC2C(=O)N2CCN(C)CC2)cc1 (centres unmarked) | 18.1% |
| CC1CC(=O)N(CC(=O)Nc2cccc(Cl)c2)c2ccccc2S1(=O)=O (centres unmarked) | -17.2% |
| CC1CCN(C(=O)c2ccc(CS(=O)(=O)Cc3ccccc3)cc2)CC1 | -33.6% |
| c1coc(-c2nn3c(-c4ccco4)nnc3s2)c1 | -17.6% |
| COc1ccc(C(c2oc(CO)cc(=O)c2O)c2oc(CO)cc(=O)c2O)cc1 | 19.5% |
| CCN1CCN(S(=O)(=O)c2ccc(Cl)c(C(=O)NC(C)(C)C)c2)CC1 | -16.5% |
| COc1ccc(NS(=O)(=O)c2coc(C(N)=O)c2)cc1Cl | 3.54% |
| Cc1cc(NC(=O)CN2C(=O)NC3(CCCCC3)C2=O)no1 | -3.14% |
| CCCCOc1ccc(C(=O)Nc2ccc(CN3CCOCC3)cc2)cc1 | 13.5% |
| COC(=O)Cc1c(C)c2c(OCc3nn[nH]n3)cc(C)cc2oc1=O | 11.4% |
| CCN(CC)CCNC(=O)c1ccc(NS(=O)(=O)c2ccc3c(c2)OCCO3)cc1 | 40.1% |
| O=C(COc1ccc2ccccc2c1)NCCn1ccc2ccccc21 | 12.4% |
| O=c1[nH]c(=O)n(-c2cccc(Cl)c2)c(O)c1C=NCCCN1CCOCC1 | -1.44% |
| O=C(NCc1ccccn1)C1CC(c2ccccc2Cl)=NO1 (centres unmarked) | 14.1% |
| Cc1ccc(SCC(=O)NCCCN2CCOCC2)cc1 | 15% |
| Cc1[nH]c(-c2ccc3c(c2)OCO3)nc1C(=O)O | 12.3% |
